# Source: PubChem BioAssay AID1346428 (National Center for Advancing Translational Sciences (NCATS), 2018)
# Where “and” joins values, the source holds several entries; their conditions need not be identical. Equal entries are not always repeated. In all, about 48,000 compounds went through this assay and about 1,200 (2.5%) were called active. Roughly 2% stayed inconclusive and do not appear here.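 How the source made its calls: active means activation of at least 60% and not above a set upper limit (about 1 call in 100 departs from these limits); inconclusive means activation of 40% to 60%, or above that upper limit; inactive means activation under 40%.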 This is one part of the list.
# Biological target: Probable G-protein coupled receptor 32 (Homo sapiens) (UniProt O75388)
# Sequence of UniProt O75388 (O75388 whole entry, looked up): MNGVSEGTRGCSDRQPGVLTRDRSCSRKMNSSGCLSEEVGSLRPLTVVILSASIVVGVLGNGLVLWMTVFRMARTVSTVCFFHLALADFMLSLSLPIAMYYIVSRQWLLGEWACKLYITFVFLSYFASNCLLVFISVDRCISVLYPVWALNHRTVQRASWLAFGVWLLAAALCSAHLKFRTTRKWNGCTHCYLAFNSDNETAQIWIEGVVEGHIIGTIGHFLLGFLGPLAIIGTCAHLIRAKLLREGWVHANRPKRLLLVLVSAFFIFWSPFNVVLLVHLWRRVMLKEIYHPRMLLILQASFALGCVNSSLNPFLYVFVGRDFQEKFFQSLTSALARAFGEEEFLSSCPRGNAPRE
# Assay: qHTS for Agonists of Human Resolvin D1 Receptor DRV1; further: 0% is about no effect
# Details: CHO-K1 GPR32 beta-arrestin PathHunter luminescence, 90 min; at 76.9 µM; stronger effect = higher value; zero percent set by DMSO-only wells
# In short: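 Cells are plated overnight, treated with compounds in DMSO for 90 minutes at 37 °C, and developed with PathHunter detection reagent for 1 hour before luminescence is read; signal reflects beta-arrestin binding to GPR32 in engineered CHO-K1 cells.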
row,Structure (SMILES),activation
1,Cc1nc2sccn2c(=O)c1S(=O)(=O)Nc1ccc(N2CCOCC2)c(Cl)c1,inactive: 15.9%
2,Cc1ccc(NC(=O)Cn2ncn3c(cc4ccccc43)c2=O)cc1F,inactive: 5.73%
3,CCC1=C(c2ccc(C)cc2)S(=O)(=O)N=C1N1CCC(C(=O)Nc2ccccc2F)CC1,inactive: -9.14%
4,Cc1ccc(Cn2c(C(=O)NCc3ccccc3Cl)cc3sccc32)cc1,inactive: -14.1%
5,Cc1nc2nc(CNC(=O)OC(C)(C)C)nn2c(C)c1CCC(=O)NCc1ccc(F)cc1,inactive: -6.93%
6,CCOc1ccc(CNCc2c(C(=O)O)c(C)n(Cc3cccc(OC)c3)c2C)cc1OC,inactive: 14.1%
7,Cc1cccc(NC(=O)CSc2nnc3[nH]c(=O)cc(-c4ccccc4)n23)c1C,inactive: -19.6%
8,Cc1cc(CN2CCN(c3ccccc3F)CC2)cs1,active: 102%
9,CCC1CCC(C(=O)NC(C(=O)Nc2cccc(OC)c2)C(C)C)CC1 (stereo unspecified),inactive: -0.91%
10,O=C(CCC(=O)N1CC2CCCN2c2ccccc21)NCc1ccc(Cl)cc1 (stereo unspecified),inactive: 24.2%
11,COc1ccc(C2Nc3ccccc3-c3cc(C)nn32)cc1OC (stereo unspecified),inactive: -26%
12,COC(=O)c1cc2sc(C)cc2n1Cc1cccc(OC)c1,inactive: -29.8%
13,COc1ccc(CNC(=O)CCCN2C(=O)CSc3c2c(C)nn3-c2ccccc2)cc1,inactive: -20.4%
14,CCOC(=O)c1c(C)[nH]c(C)c1S(=O)(=O)N1CCCC(C(=O)NCc2cccc(C)c2)C1 (stereo unspecified),inactive: -15.1%
15,Cc1cccn2c(=O)c(C(=O)NCc3ccc(F)cc3)c(O)nc12,inactive: 1.61%
16,CCN(CC)CCNC(=O)C1CCN(c2nn3cc(-c4ccc(F)cc4)nc3s2)CC1,inactive: -4.96%
17,CCOC(=O)c1c(-c2ccc(OC)cc2)oc2ccc(OCc3ccccc3C)cc12,inactive: -3.71%
18,CCOc1cc(C(=O)Nc2cc3c(cc2N2CCOCC2)n(C)c(=O)n3C)cc(OCC)c1OCC,inactive: 8.17%
19,FC1(F)C(F)(F)C(F)(F)C2(F)C(F)(F)C(F)(F)C(F)(F)C(F)(F)C2(F)C1(F)F (stereo unspecified),inactive: 6.37%
20,O=c1cc(-c2ccccc2)nc(SCc2nc(-c3ccccc3Cl)no2)[nH]1,inactive: 8%
21,COc1ccc(CC(=O)NCC(c2cccs2)S(=O)(=O)c2ccc(C)cc2)cc1 (stereo unspecified),inactive: 9.54%
22,COc1cccc(CNC(=O)Cc2c(C(=O)O)c(C)cn2C)c1,inactive: -2.56%

row,Structure (SMILES),activation
1,CCOC(=O)c1c(NC(=O)c2cc(-c3cccc(OC)c3)on2)sc2c1CCCC2,inactive: -3%
2,O=C(NCc1cccs1)c1ccc(CSc2nc3cccnc3n2Cc2ccccc2F)cc1,inactive: -43.2%
3,CC(C)c1ccc(NC(=O)CN2C(=O)COc3ccc(S(=O)(=O)N4CCCCCC4)cc32)cc1,inactive: -19%
4,CCc1ccc(NC(=O)Cn2c(=O)n(Cc3ccco3)c(=O)c3oc4ccccc4c32)cc1,inactive: 4.68%
5,O=C(NCc1cccc(Cl)c1)c1ccc2nc(N3CCCCC3)sc2c1,inactive: -9.46%
6,COc1ccccc1N1CCN(c2ncnc3onc(-c4cccc(Cl)c4)c23)CC1,inactive: -7.83%
7,CCOC(=O)c1c(C)n(-c2ccccc2)c2ccc(OC(=O)c3cccc(OC)c3OC)cc12,inactive: -5.24%
8,Cc1cc(C)c(NC(=O)Cn2cnc3c(oc4ccccc43)c2=O)c(C)c1,inactive: 0.733%
9,Cc1oc(-c2ccccc2Cl)nc1CSc1nc2ncccc2[nH]1,inactive: -3.53%
10,COc1ccc(S(=O)(=O)Nc2c(C)nc3nc(C)[nH]n3c2=O)cc1,inactive: 9.28%
11,CCc1cccc(N2C(=O)CSC23C(=O)Nc2ccccc23)c1 (stereo unspecified),inactive: -5.98%
12,CCN(CC)C(=O)c1ccc(Nc2nnc(-c3ccc(C)c(S(=O)(=O)NC)c3)c3ccccc23)cc1,inactive: -7.24%
13,CCCN(C(=O)c1cc2c(=O)[nH]c3ccc(C)cc3c2s1)c1ccc(CC)cc1,inactive: -12.4%
14,CCc1nnc2c(N3CCN(c4cc(Cl)ccc4C)CC3)nc3ccccc3n12,inactive: -11.8%
15,CCOC(=O)C1CCCN(C(=O)c2nn(-c3ccc(C)cc3)c(=O)n(C)c2=O)C1 (stereo unspecified),inactive: -5.85%
16,CCOc1ccc(CNS(=O)(=O)c2ccc3c(c2)CCCN3C(C)=O)cc1OC,inactive: 12.1%
17,CCCC(=O)OCOC(=O)C1=C(C)NC(C)=C(C(=O)OC)C1c1cccc(Cl)c1Cl (stereo unspecified),inactive: 34.9%
18,CC1CCN(C(=O)c2cc(-c3ccc(Br)cc3)on2)CC1,inactive: -9.88%
19,CCOc1ccc(NC(=O)CCNS(=O)(=O)c2cccc3nonc23)cc1,inactive: -16.7%
20,COc1ccc2c(c1)c(N1CCCC1=O)c(C(=O)Nc1ccccc1C(F)(F)F)n2C,inactive: 3.43%
21,COc1ccc(C2=C(C)C(=O)N(Cc3ccc(C(=O)NCc4cccc(C)c4)cc3)S2(=O)=O)cc1,inactive: -8.94%
22,COc1ccc(-c2noc(N3CCC(C(=O)N4CCN(c5cccc(C)c5C)CC4)CC3)n2)cc1,inactive: -0.0156%

row,Structure (SMILES),activation
1,COc1ccc(C2=NC(c3ccncc3)=Nc3ccc(OC)cc3N2)cc1,inactive: -29%
2,O=C1[C@@H]2CSC(c3ccc(Cl)cc3)N2C(=O)N1c1ccccc1 (stereo partly specified),inactive: -0.85%
3,CC(C)c1ccc(N2C(=O)CSC23C(=O)N(C)c2ccccc23)cc1 (stereo unspecified),inactive: -27.1%
4,O=C(COc1ccc(F)cc1)Nc1ccc2nc(SCC(=O)N3CCOCC3)sc2c1,inactive: 21.4%
5,COc1ccc(-c2noc(COc3cc(C)ccc3C)n2)cc1OC,inactive: -18.3%
6,Cc1cccc(NC(=O)N2CCC3(CC2)Oc2ccccc2C(=O)N3Cc2ccccc2F)c1C,inactive: -12.7%
7,O=C(Cc1ccc(F)cc1)Nc1nnc2n1CCS2,inactive: -5.16%
8,CCOc1ccc(C(=O)c2oc3ccccc3c2NC(=O)Cc2coc3ccc(CC)cc23)cc1,inactive: 3.5%
9,CN(C)CCCN1c2ccccc2CCc2ccccc21,inactive: -3.53% and inactive: -12.9%
10,Cc1cccc(C(=O)NCN2CCN(c3ccccc3C#N)CC2)c1,inactive: -8.74%
11,COc1cccc(C(=O)Nc2c(C(=O)N3CCN(c4ccc(F)cc4)CC3)oc3ccccc23)c1,inactive: -9.87%
12,COc1cc2ccccc2cc1C(=O)Nc1ccc2oc(-c3ccc(F)cc3Cl)nc2c1,inactive: 0.107%
13,CCc1ccc(CNC(=O)c2c(C)oc3ncnc(N4CCOCC4)c23)cc1,inactive: -8%
14,CC(C)c1ccc(Nc2cc(C(=O)NC3CCCCC3)c3ccccc3n2)cc1,inactive: -9.15%
15,CCc1ccc2occ(CC(=O)Nc3ccccc3C(F)(F)F)c2c1,inactive: 0.0964%
16,CCc1cccc(-n2c(=O)c3cccnc3n2CC(=O)Nc2ccc(F)c(C)c2)c1,inactive: -6.32%
17,CCc1ccccc1OCC(=O)Nc1ccc(S(=O)(=O)Nc2nc(C)cc(C)n2)cc1,inactive: -8.96%
18,CCOc1ccccc1-n1nnc(-c2nsc(NC(=O)c3ccc(C)cc3)n2)c1C,inactive: -4.28%
19,Cc1cccc(N2CCN(CCNC(=O)Nc3ccc(Cl)cc3)CC2)c1C,inactive: -5.03%
20,COc1ccccc1NC(=O)CSc1nc(-c2ccc(C(C)(C)C)cc2)c(C#N)c(=O)[nH]1,inactive: -8.17%
21,O=C(NCCn1ccc2ccccc21)c1ccc(Cl)cc1,inactive: 40%
22,COc1ccc(NC(=O)Cn2c(=O)n(Cc3nc(-c4ccccc4)no3)c(=O)c3ccccc32)cc1Cl,inactive: -7.03%

row,Structure (SMILES),activation
1,COc1ccc(/C=C/C(=O)Nc2nc3n(n2)C(c2ccc(F)cc2)C=C(c2ccccc2)N3)cc1 (stereo unspecified),inactive: -12.5%
2,CCOC(=O)c1c(-c2ccc(C)cc2)csc1NC(=O)c1cc(=O)c2ccc(C)cc2o1,inactive: -2.54%
3,CSc1cccc(Nc2cc(C(=O)NCCCN(C)c3ccccc3)c3ccccc3n2)c1,inactive: -2.2%
4,COc1cc(C(=O)n2nc(C)c(Sc3ccc(Cl)cc3)c2C)cc(OC)c1OC,inactive: -12.5%
5,CC(=O)N1CCc2cc(S(=O)(=O)NC(C(=O)Nc3ccc(C)cc3C)C(C)C)ccc21 (stereo unspecified),inactive: 10.1%
6,NC1(C(=O)O)CCc2cc(C(=O)O)ccc21 (stereo unspecified),inactive: 7.47%
7,COc1ccc(NC(=O)C2CCCN(S(=O)(=O)c3ccc(Br)s3)C2)cc1 (stereo unspecified),inactive: -14.3%
8,NC(CO)C(=O)NNCc1ccc(O)c(O)c1O (stereo unspecified),inactive: 25.3%
9,CCCCCCCCCCC(CO)CCCCCCCC (stereo unspecified),inactive: -21.5%
10,COc1cc(NC(=O)c2ccc(C)cc2)ccc1NC(=O)c1cc2ccccc2o1,inactive: -2.51%
11,Cc1ccc(C)c(CN2C(=O)C(=O)c3ccccc32)c1,inactive: -26.6%
12,O=C1CSC2(C(=O)N(Cc3ccccc3F)c3ccccc32)N1c1ccc(F)cc1 (stereo unspecified),inactive: -4.41%
13,COCC(=O)Nc1c(I)c(C(=O)NCC(O)CO)c(I)c(C(=O)N(C)CC(O)CO)c1I (stereo unspecified),inactive: 11.7%
14,Cc1ccc2onc(CNC(=O)N3CCN(c4cccc(C)c4C)CC3)c2c1,inactive: -27.5%
15,COc1ccc(-c2cc(C(=O)Nc3cccnc3Cl)no2)cc1OC,inactive: -4.93%
16,CCSc1nnc2n(-c3cccc(C)c3)c(=O)c3c4c(sc3n12)CCCC4,inactive: 23.6%
17,COc1ccc(CCC(=O)N2CCc3c([nH]c4ccccc34)C2c2ccc(F)cc2)cc1 (stereo unspecified),inactive: -35.3%
18,Cc1coc2ccccc2c1=O,inactive: 16.4%
19,COc1ccc(-n2ccnc2SCC(=O)Nc2ccc(F)cc2F)cc1,inactive: -9.09%
20,Cc1cc2nn(-c3ccccc3)nc2cc1NC(=O)c1cccc2c(Cl)cccc12,inactive: 3.48%
